The text below walks through data of the antibiotic and cytotoxicity screens of Wong et al. (2023).

The list shows a part of the results.

The test system of this test is HSkMC (human skeletal muscle cells). In words: cytotoxicity call (relative viability < 0.9). The note with it: 10 µM.
For `Cc1ccc(S(=O)(=O)Nc2ccc3c(c2)CC(=O)N([C@@H](C)CO)C[C@@H](C)[C@H](CN(C)Cc2ccc(C(F)(F)F)cc2)O3)cc1`, the cytotoxicity call is “inactive”.

For the compound `C[C@H]1CN([C@@H](C)CO)C(=O)Cc2cc(NS(=O)(=O)c3ccccc3)ccc2O[C@H]1CN(C)Cc1ccc2c(c1)OCO2`, the cytotoxicity call is “inactive”.

Regarding `Cc1noc(C)c1NC(=O)N(C)C[C@@H]1OCCCC[C@@H](C)Oc2ccc(NC(=O)Nc3ccc4c(c3)OCO4)cc2C(=O)N([C@@H](C)CO)C[C@H]1C`, the cytotoxicity call was “inactive”.

On to `C[C@@H]1CCCCO[C@H](CN(C)C(=O)CCC(F)(F)F)[C@H](C)CN([C@H](C)CO)C(=O)c2cc(NS(=O)(=O)c3cccs3)ccc2O1`, for which the cytotoxicity call was “inactive”.

For the compound `C[C@@H]1CN([C@@H](C)CO)C(=O)c2cc(NC(=O)CCN3CCOCC3)ccc2O[C@H]1CN(C)C(=O)NC1CCCCC1`, the cytotoxicity call was “inactive”.

In the case of `C[C@H]1CN([C@@H](C)CO)C(=O)c2cc(-c3cccc(C(=O)N(C)C)c3)cnc2O[C@H]1CN(C)S(=O)(=O)c1cccc(F)c1`, the cytotoxicity call is “inactive”.

As to `CCC(=O)NC[C@H](Cc1ccc(OCCc2nc(-c3ccccc3)oc2C)cc1)N/C(C)=C\C(=O)c1ccc(C(F)(F)F)cc1`, the cytotoxicity call was “active”.

In the case of `C[C@@H]1CN([C@@H](C)CO)C(=O)CCCn2cc(nn2)CO[C@H]1CN(C)Cc1cccc2c1OCCCO2`, the cytotoxicity call was “inactive”.

Turning to `Cc1noc(C)c1NC(=O)Nc1ccc2c(c1)CC(=O)N([C@@H](C)CO)C[C@@H](C)[C@H](CN(C)CC1CC1)O2`, the cytotoxicity call was “inactive”.

With `O=C(C[C@@H]1CC[C@@H]2[C@H](COC[C@H](O)CN2C(=O)CCN2CCCCC2)O1)NCCCN1CCOCC1`, the cytotoxicity call is “inactive”.

With `O=C(C[C@@H]1CC[C@H](NS(=O)(=O)c2ccccc2F)[C@H](CO)O1)NCCCN1CCOCC1`, the cytotoxicity call is “inactive”.

Consider `CC(OC1OCCN(C(C)c2nc(=O)[nH][nH]2)C1c1ccc(F)cc1)c1cc(C(F)(F)F)cc(C(F)(F)F)c1` (stereo not given), for which the cytotoxicity call is “inactive”.

As to `O=C(C[C@@H]1CC[C@H]2[C@@H](COC[C@@H](O)CN2S(=O)(=O)c2ccccc2)O1)N[C@@H]1CCN(Cc2ccccc2)C1`, the cytotoxicity call was “inactive”.

Consider `C[C@H](CO)N1C[C@H](C)[C@H](CN(C)C(=O)CN(C)C)Oc2ncc(C#CC(C)(C)O)cc2C1=O`, for which the cytotoxicity call was “inactive”.

In the case of `COC(=O)C[C@H]1CC[C@H]2[C@@H](COC[C@H](O)CN2S(=O)(=O)c2cn(C)cn2)O1`, the cytotoxicity call was “inactive”.

For `COc1ccc(S(=O)(=O)Nc2cccc3c2O[C@H](CN(C)S(=O)(=O)c2ccccc2)[C@@H](C)CN([C@H](C)CO)C3=O)cc1`, the cytotoxicity call is “inactive”.

For the compound `C[C@@H]1CN([C@H](C)CO)C(=O)c2cc(NC(=O)C3CCOCC3)ccc2O[C@H]1CN(C)S(=O)(=O)c1ccc(Cl)cc1`, the cytotoxicity call is “inactive”.

Regarding `CC(C)(C)[S@](=O)N1Cc2cc(C(=O)NCc3ccc4c(c3)OCO4)nc(-c3cccc(-c4cccnc4)c3)c2[C@@H]1CCO`, the cytotoxicity call was “inactive”.

`C[C@H]1CN([C@@H](C)CO)C(=O)c2cccc(NS(=O)(=O)c3ccccc3)c2O[C@@H]1CN(C)S(=O)(=O)c1ccc(F)cc1`: the cytotoxicity call was “inactive”.

For the compound `O=C(c1ccccc1Cl)n1c2ccccc2c2ccccc21`, the cytotoxicity call was “inactive”.

Regarding `O=C(CN1CCOCC1)NCC[C@H]1CC[C@H](NC(=O)Cc2ccccn2)[C@H](CO)O1`, the cytotoxicity call was “inactive”.

For `C[C@@H]1CCCCO[C@H](CN(C)C(=O)Nc2ccccc2)[C@@H](C)CN([C@H](C)CO)C(=O)c2cc(NS(=O)(=O)c3ccc(Cl)cc3)ccc2O1`, the cytotoxicity call was “inactive”.

`CC(C)[C@@H](CO)N1C(=O)[C@@H]2[C@H]3C(=O)OCCC/C=C\[C@H]3O[C@]23C=CCN(c2ccc4ccccc4c2)C(=O)[C@@H]13`: the cytotoxicity call was “inactive”.

As to `O=[N+]([O-])c1ccc(NCCO)c(OCCO)c1`, the cytotoxicity call is “inactive”.

Consider `N#C[C@@H]1C(=O)NC(=O)[C@@H](C#N)C12CCCC2`, for which the cytotoxicity call is “inactive”.

Turning to `CS(=O)(=O)[C@H]1CCNC1`, the cytotoxicity call is “inactive”.

Regarding `O=C(C[C@@H]1CC[C@@H]2[C@H](COC[C@@H](O)CN2C(=O)Nc2cc(Cl)cc(Cl)c2)O1)N1CCOCC1`, the cytotoxicity call is “inactive”.

`C[C@H](CO)N1C[C@H](C)[C@H](CN(C)S(=O)(=O)c2ccccc2)OCCCC[C@H](C)Oc2ccc(NS(=O)(=O)c3cn(C)cn3)cc2C1=O`: the cytotoxicity call was “inactive”.

On to `C[C@@H]1CN([C@@H](C)CO)C(=O)c2cc(NS(=O)(=O)c3cn(C)cn3)ccc2O[C@@H]1CN(C)CC1CCCCC1`, for which the cytotoxicity call is “inactive”.

For `CC(C)NC(=O)N(C)C[C@H]1Oc2ccc(NS(=O)(=O)c3cccs3)cc2C(=O)N([C@H](C)CO)C[C@H]1C`, the cytotoxicity call was “inactive”.
